From PubChem BioAssay AID894 (National Center for Advancing Translational Sciences (NCATS), 2007)
The whole screen tested about 150,000 compounds, of which about 6,500 (4.3%) were called active. The shares of active, inactive and inconclusive entries below differ from those in the screen. Calls follow the shape of the dose curve; as a rule, active = well fitted inhibition curve with a large enough effect (not every such curve was filed as active); inconclusive = small, poorly fitted or top-dose-only effect, or another doubt; inactive = no such curve, though single readings can be large or run the other way. Potencies of inconclusive entries are left out as doubtful fits.

Each compound was assayed against 15-hydroxyprostaglandin dehydrogenase [NAD(+)] (Homo sapiens) (UniProt P15428) (assay: qHTS Assay for Inhibitors of HPGD (15-Hydroxyprostaglandin Dehydrogenase)). Conditions: purified HPGD, NADH fluorescence kinetic, PGE2 substrate; activity change, negative = inhibition: hits give low values.
Source text: Human 15-Hydroxyprostaglandin dehydrogenase (HPGD) catalyzes the inactivation of prostaglandin E2, and plays a major role in cancer biology by antagonizing the oncogenic potential of cyclooxygenase type 2 (COX2). Assays are available, based on absorbance/fluorescence increase of NADH with the substrate 15-OH prostaglandin E2. References 1. Myung SJ, Rerko RM, Yan M, Platzer P, Guda K, Dotson A, Lawrence E, Dannenberg AJ, Lovgren AK, Luo G, Pretlow TP, Newman RA, Willis J, Dawson D, Markowitz SD. 15-Hydroxyprostaglandin dehydrogenase is an in vivo suppressor of colon tumorigenesis. […] 2. Yan M, Rerko RM, Platzer P, Dawson D, Willis J, Tong M, Lawrence E, Lutterbaugh J, Lu S, Willson JK, Luo G, Hensold J, Tai HH, Wilson K, Markowitz SD. 15-Hydroxyprostaglandin dehydrogenase, a COX-2 oncogene antagonist, is a TGF-beta-induced suppressor of human gastrointestinal cancers. […] An increase in the fluorescence intensity due to conversion of NAD+ to NADH was used to measure the enzyme activity. […]
Buffer: 50 mM Tris-HCl, 0.01% Tween 20, pH 8. […] The plates were immediately transferred to and read 5 times every 30 seconds on ViewLux High-throughput CCD imager (Perkin-Elmer) using 360 nm excitation and 450 nm emission fluorescence protocol. The fluorescence intensity difference between the last and the first time points was used to compute reaction progress.
Potency is read from the fitted curve at half-maximal effect; tags tell the direction and shape of the fitted curve.

UniProt P15428, sequence (P15428 whole entry, looked up): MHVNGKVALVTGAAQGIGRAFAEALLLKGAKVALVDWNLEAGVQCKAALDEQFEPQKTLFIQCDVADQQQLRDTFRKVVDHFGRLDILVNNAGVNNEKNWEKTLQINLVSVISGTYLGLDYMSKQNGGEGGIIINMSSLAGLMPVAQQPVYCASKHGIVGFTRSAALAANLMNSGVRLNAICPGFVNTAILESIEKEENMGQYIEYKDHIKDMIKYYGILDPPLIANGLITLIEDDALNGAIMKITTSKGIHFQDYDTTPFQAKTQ

How did the Potency turn out when `O=C(Nc1ccc(-c2nc3ccccc3[nH]2)cc1)c1ccccc1NS(=O)(=O)c1ccc(F)cc1` was run?
Its Potency is inconclusive [inhibitor, partial curve].
